Laboratory results as given in the supplement of paper PMC3334620.
Over roughly 33,000 sequences, “E-score (-0.5 to 0.5)” has its median near -0.032; the highest 2% begin near 0.36. The list shows a part of the results.

Biological target: T1, Sko1 (UniProt Q02100)
T1 sequence: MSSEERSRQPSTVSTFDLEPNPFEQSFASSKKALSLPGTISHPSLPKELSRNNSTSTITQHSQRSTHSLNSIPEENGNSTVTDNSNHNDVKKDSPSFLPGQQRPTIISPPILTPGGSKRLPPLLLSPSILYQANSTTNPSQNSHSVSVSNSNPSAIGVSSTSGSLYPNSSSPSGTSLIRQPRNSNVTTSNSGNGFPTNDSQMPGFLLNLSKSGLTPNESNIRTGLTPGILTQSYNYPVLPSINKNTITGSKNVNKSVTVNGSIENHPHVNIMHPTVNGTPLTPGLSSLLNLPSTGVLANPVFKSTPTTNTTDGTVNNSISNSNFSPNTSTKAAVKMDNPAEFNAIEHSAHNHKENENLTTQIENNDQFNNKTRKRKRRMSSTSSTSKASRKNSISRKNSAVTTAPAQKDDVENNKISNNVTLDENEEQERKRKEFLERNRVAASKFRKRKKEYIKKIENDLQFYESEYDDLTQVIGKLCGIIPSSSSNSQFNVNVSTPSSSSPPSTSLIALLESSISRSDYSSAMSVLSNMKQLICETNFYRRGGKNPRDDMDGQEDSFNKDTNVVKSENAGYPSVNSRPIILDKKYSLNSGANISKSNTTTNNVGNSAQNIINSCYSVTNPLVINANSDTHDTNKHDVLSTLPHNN
Assay: PBM E-score (8-mer binding enrichment) (E-score (-0.5 to 0.5)); higher = stronger / more preferred TF binding; most listed sequences are background and not binding sites
Conditions: protein concentration: 200 nM; construct: GST-full length
Outline: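 The E-score, a modified Wilcoxon-Mann-Whitney statistic, was computed by the Universal PBM Analysis Suite for every ungapped eight-base word pooled with its reverse complement. Scans behind it were normalised with masliner after bound GST-tagged yeast transcription factors were detected with fluorescent anti-GST. The proteins, at about 100-200 nM, had been applied to universal all-10-mer Agilent arrays made double-stranded by primer extension.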

Sequence	PBM E-score
CCTCATTC	-0.0556
CTATAAAA	0.0949
ATCGTATG	0.313
CCTTCCCA	-0.146
AGTGGGAT	-0.0477
AAGACCCA	-0.212
AAATAACA	0.204
GCACACGC	0.107
CTAATACA	0.101
TAATCTAA	0.145
GATACGGC	-0.143
CCAGAAGC	-0.316
ATAGCCCC	-0.244
GCCAAGCA	-0.0969
CAGATCAA	-0.0787
CCATCAAA	0.00561
GTATCATA	0.275
AAGCCTTC	-0.176
CTGGACTC	-0.0221
ACGTCAGA	0.479
CGGTGAAG	-0.173
CCATCTCA	-0.105
CAAGTCGC	-0.173
ACGAGCAC	-0.0211
ACCTTCAA	-0.0578

Sequence	PBM E-score
AGAAATTG	0.145
CCATCGCA	-0.183
GGCCTATA	-0.291
CTACTCTC	-0.211
ATACGCTC	0.151
AATTTTAG	-0.0264
AGTGCGGC	-0.213
CGTTGGTC	0.00799
CCTTTCGC	-0.152
ACTCCTAT	0.0982
CACCGTAG	-0.111
CGCCCGCG	-0.155
CGGGTACA	-0.279
GACCCGAC	-0.164
TATCATGA	0.244
ACCTAGAA	0.0146
ACCTTATA	0.0285
CCAAACGG	-0.31
GCCTTCCA	-0.222
ATTTATAC	0.277
AATTGGCC	-0.147
AGCCGGAC	-0.00106
CGCAGGTA	-0.0238
GGGGAGAA	-0.194
CGCCCCCC	-0.443

Sequence	PBM E-score
CCGGTTAA	-0.153
CGTTACTC	0.106
GTAAAGTA	0.291
CCAATGTA	-0.208
GCACGACC	-0.266
CAAGTGTC	-0.125
AACCAGAG	-0.201
ATTCCCTC	-0.151
AAGCGGGT	-0.268
CCTTAAGA	-0.167
GAACAGAA	-0.00509
ATATAGAG	-0.151
ACCTCCTA	-0.243
CAGAATCG	-0.0197
GCAGGATA	-0.0876
AGTTACAC	0.15
CGACATAC	0.251
AGTTGGAT	0.0493
GACGGCAC	-0.055
TCAACAGA	-0.0092
CGCAGTGC	-0.102
AGCGAGAA	-0.152
ACGTATCG	0.452
ACGTGCTC	0.291
ACGGCTCA	-0.165

Sequence	PBM E-score
ATACTAAC	0.0101
CAGAAGCA	-0.122
ACGTACTG	0.412
CCCGGGCG	-0.156
CACGTAGG	0.396
CGGAATTC	-0.122
CTTATTAC	0.245
ACCGTGCC	-0.164
GATCACCC	-0.21
CGTGCACC	0.051
ACTGCTGG	-0.307
ACCTACTG	-0.0696
CTGCGAGA	-0.169
ACAATTCA	0.0199
ACACCTGC	-0.064
ATGTATTC	-0.0566
TCCTGTAA	0.0112
CTCGGCCA	-0.233
AAAGTTTG	0.155
ACGAGTAA	0.155
GCTCAGTA	0.159
CTTATAAC	0.197
ATACAGCG	-0.0118
CTACCCAC	-0.132
CTGTCAAA	0.0958

Sequence	PBM E-score
ATAGGCAT	-0.15
ACTACTAT	0.132
GTCACACA	0.0871
GATGGCGC	-0.195
CGTGGATC	0.154
ACGTAAGA	0.476
GACTCGAA	-0.281
TAATTCAA	0.265
GCGAGTCC	-0.334
CTGTCGCC	-0.277
ATCGGGCC	-0.222
AATCAACA	0.202
CTTGAGCC	-0.324
GAGCTCTA	-0.162
CGCCTGGA	-0.175
ACATCTAG	-0.0627
ATCAACAC	0.104
CTTCATAC	0.101
CCGTGCGA	-0.0151
CTGAAAGA	-0.0455
TCTAGACA	0.00373
AAGCAGAC	-0.211
AGTGGAAA	-0.0144
GGCAATAC	0.0466
CGAGACCG	-0.248

Sequence	PBM E-score
GCCTTCGA	-0.202
ACCATGGC	-0.0206
CTTATCCA	0.0147
AAAAGATA	0.222
CCATCCCG	-0.175
GATTTGCA	0.0954
AACTCCTG	-0.114
TATCTCAA	0.292
AACCGATA	0.0484
AATGGCGA	0.0785
ACACCGTG	-0.162
CCGGTTGC	-0.0613
GTGCTTTA	0.0343
GAGAGCGA	-0.12
AATTCGTA	0.386
CCTTTGCC	-0.173
CACACATG	-0.0923
GGTGTGAA	0.114
ACATTAGA	0.0175
CCTAATAG	-0.0863
CGTTGCAG	0.00309
GGCTTGAA	0.0693
CCAACCCG	-0.184
GGTTTTAA	-0.0912
AGACCCTG	-0.24

Sequence	PBM E-score
AACATGCA	0.127
CCTAGCTC	-0.211
TAATCGAA	0.16
CAAGATGG	-0.23
CCACTGCA	-0.123
AAATGGGA	-0.183
CAAATTGG	0.178
GCGAAAAA	0.13
AGACGGCC	-0.254
AGACCTAC	0.0184
CATCTAAG	-0.0102
CACTTTGG	-0.0531
TCGATAAA	0.0914
AGGGGTTA	-0.257
GCCTTCAC	-0.149
ATTGGAAA	0.0614
AGTAAAAT	0.192
TATCAATA	0.223
AACCACAC	0.179
CAATGCAA	-0.00957
GTACCTTA	0.171
GCCTAACA	-0.0138
